# Measurements from the supplement of paper PMC8728848.
# Some of the results follow.
# B1: Arath Fbox (Arabidopsis thaliana), NP_178341.1 (protein)
# chain: EFTWGRKRRVKSESSPFDSFPEDCISYIISFTNPRDACVAATVSKTFESTVKSDIIWEKFLPADYESLIPPSRVFSSKKELYFSLCNDPVLFDDDKKSVWLEKASGKRCLMLSAMNLSIIWGDNPQYWQWIPIPESRFEKVAKLRDVCWFEIRGRTNTRVLSPRTRYSAYIVFKGVDKCYGFQNVAIEAAVGVVGQEPSRRLICFSEAIRRGRRNVVKPKQREDGWMEIELGEFFNDGGIMDNDEIEMSALETKQLNRKCGLIIQGIEIRPAKILAAAAASFLEQKLISEEDLNSAVDHHHHHH
# Legend:
# Assay in all cases: glycan array binding signal (z-score within array); higher = stronger binding
# Conditions in all cases: glycan notation: IUPAC condensed, linker removed
# [1] = target: Gal(b1-3)GlcNAc(b1-2)Man(a1-3)[Gal(b1-3)GlcNAc(b1-2)Man(a1-6)]Man(b1-4)GlcNAc(b1-4)GlcNAc
# In short: (§1)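 From the Consortium for Functional Glycomics database, 3228 arrays were curated, keeping only those whose protein sequence was available. Binding is given as a within-array Z-score averaged across arrays sharing a protein sequence and across linkers. Negative Z-scores can be read as non-binding.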
# [2] = target: Gal(b1-3)GlcNAc(b1-2)Man(a1-3)[Gal(b1-3)GlcNAc(b1-2)Man(a1-6)]Man(b1-4)GlcNAc(b1-4)[Fuc(a1-6)]GlcNAc
# In short: as §1
# [3] = target: Gal(b1-3)GlcNAc(b1-2)Man(a1-3)[GlcNAc(b1-4)][Gal(b1-3)GlcNAc(b1-2)Man(a1-6)]Man(b1-4)GlcNAc(b1-4)GlcNAc
# In short: as §1
# [4] = target: Gal(b1-3)GlcNAc(b1-2)[Gal(b1-3)GlcNAc(b1-6)]Man(a1-6)[Gal(b1-3)GlcNAc(b1-2)Man(a1-3)]Man(b1-4)GlcNAc(b1-4)GlcNAc
# In short: as §1
# [5] = target: Gal(b1-3)GlcNAc(b1-3)Gal(b1-3)GlcNAc
# In short: as §1
# [6] = target: Gal(b1-3)GlcNAc(b1-3)Gal(b1-4)Glc
# In short: as §1
# [7] = target: Gal(b1-3)GlcNAc(b1-3)Gal(b1-4)GlcNAc
# In short: as §1
# [8] = target: Gal(b1-3)GlcNAc(b1-3)Gal(b1-4)GlcNAc(b1-2)Man(a1-3)[Gal(b1-3)GlcNAc(b1-3)Gal(b1-4)GlcNAc(b1-2)Man(a1-6)]Man(b1-4)GlcNAc(b1-4)GlcNAc
# In short: as §1
# [9] = target: Gal(b1-3)GlcNAc(b1-3)Gal(b1-4)GlcNAc(b1-2)[Gal(b1-3)GlcNAc(b1-3)Gal(b1-4)GlcNAc(b1-6)]Man(a1-6)[Gal(b1-3)GlcNAc(b1-3)Gal(b1-4)GlcNAc(b1-2)Man(a1-3)]Man(b1-4)GlcNAc(b1-4)[Fuc(a1-6)]GlcNAc
# In short: as §1
# [10] = target: Gal(b1-3)GlcNAc(b1-3)Gal(b1-4)GlcNAc(b1-3)Gal(b1-4)GlcNAc(b1-2)[Gal(b1-3)GlcNAc(b1-3)Gal(b1-4)GlcNAc(b1-3)Gal(b1-4)GlcNAc(b1-6)]Man(a1-6)[Gal(b1-3)GlcNAc(b1-3)Gal(b1-4)GlcNAc(b1-3)Gal(b1-4)GlcNAc(b1-2)Man(a1-3)]Man(b1-4)GlcNAc(b1-4)[Fuc(a1-6)]GlcNAc
# In short: as §1
# [11] = target: Gal(b1-3)GlcNAc(b1-3)Gal(b1-4)GlcNAc(b1-6)[Gal(b1-3)GlcNAc(b1-3)]Gal(b1-4)Glc
# In short: as §1
# [12] = target: Gal(b1-3)GlcNAc(b1-3)Gal(b1-4)[Fuc(a1-3)]GlcNAc
# In short: as §1
# [13] = target: Gal(b1-3)GlcNAc(b1-3)Gal(b1-4)[Fuc(a1-3)]GlcNAc(b1-6)[Gal(b1-3)GlcNAc(b1-3)]Gal(b1-4)Glc
# In short: as §1
# [14] = target: Gal(b1-3)GlcNAc(b1-3)GalNAc
# In short: as §1
# [15] = target: Gal(b1-3)GlcNAc(b1-6)Gal(b1-4)GlcNAc
# In short: as §1
# [16] = target: Gal(b1-3)GlcNAc(b1-6)GalNAc
# In short: as §1
# [17] = target: Gal(b1-3)GlcNAc(b1-6)[Gal(b1-3)]GalNAc
# In short: as §1
# Gal(b1-3)GlcNAc6S = target: Gal(b1-3)GlcNAc6S
# In short: as §1
# [18] = target: Gal(b1-3)[Fuc(a1-4)]GlcNAc
# In short: as §1
# [19] = target: Gal(b1-3)[Fuc(a1-4)]GlcNAc(b1-2)Man
# In short: as §1
# [20] = target: Gal(b1-3)[Fuc(a1-4)]GlcNAc(b1-2)Man(a1-3)[Gal(b1-3)[Fuc(a1-4)]GlcNAc(b1-2)Man(a1-6)]Man(b1-4)GlcNAc(b1-4)[Fuc(a1-6)]GlcNAc
# In short: as §1
# [21] = target: Gal(b1-3)[Fuc(a1-4)]GlcNAc(b1-3)Gal(b1-3)[Fuc(a1-4)]GlcNAc
# In short: as §1
# [22] = target: Gal(b1-3)[Fuc(a1-4)]GlcNAc(b1-3)Gal(b1-4)[Fuc(a1-3)]GlcNAc
# In short: as §1
# [23] = target: Gal(b1-3)[Fuc(a1-4)]GlcNAc(b1-6)GalNAc
# In short: as §1
# [24] = target: Gal(b1-3)[GlcNAc(b1-6)]GalNAc
# In short: as §1
# [25] = target: Gal(b1-3)[Neu5Ac(a2-6)]GalNAc
# In short: as §1
# [26] = target: Gal(b1-3)[Neu5Ac(a2-6)]GlcNAc(b1-4)Gal(b1-4)Glc
# In short: as §1
# [27] = target: Gal(b1-3)[Neu5Ac(b2-6)]GalNAc
# In short: as §1
# Gal(b1-4)Gal = target: Gal(b1-4)Gal
# In short: as §1
# [28] = target: Gal(b1-4)GalNAc(a1-3)[Fuc(a1-2)]Gal(b1-4)GlcNAc
# In short: as §1
# [29] = target: Gal(b1-4)GalNAc(b1-3)[Fuc(a1-2)]Gal(b1-4)GlcNAc
# In short: as §1
# Gal(b1-4)Glc = target: Gal(b1-4)Glc
# In short: as §1
# Gal(b1-4)Glc6S = target: Gal(b1-4)Glc6S
# In short: as §1
# Gal(b1-4)GlcNAc = target: Gal(b1-4)GlcNAc
# In short: as §1
# [30] = target: Gal(b1-4)GlcNAc(a1-6)Gal(b1-4)GlcNAc
# In short: as §1
# Gal(b1-4)GlcNAc(b1-2)Man = target: Gal(b1-4)GlcNAc(b1-2)Man
# In short: as §1
# [31] = target: Gal(b1-4)GlcNAc(b1-2)Man(a1-3)Man(b1-4)GlcNAc(b1-4)GlcNAc
# In short: as §1
binder,measurement,setting,value
B1,glycan array binding signal (z-score),[1],0.363
same,glycan array binding signal (z-score),[2],3.36
same,glycan array binding signal (z-score),[3],-0.473
same,glycan array binding signal (z-score),[4],-0.358
same,glycan array binding signal (z-score),[5],0
same,glycan array binding signal (z-score),[6],-0.779
same,glycan array binding signal (z-score),[7],-0.611
same,glycan array binding signal (z-score),[8],-0.301
same,glycan array binding signal (z-score),[9],1.03
same,glycan array binding signal (z-score),[10],0.825
same,glycan array binding signal (z-score),[11],-0.587
same,glycan array binding signal (z-score),[12],-0.717
same,glycan array binding signal (z-score),[13],-0.689
same,glycan array binding signal (z-score),[14],0.427
same,glycan array binding signal (z-score),[15],-0.411
same,glycan array binding signal (z-score),[16],-0.072
same,glycan array binding signal (z-score),[17],1.13
same,glycan array binding signal (z-score),Gal(b1-3)GlcNAc6S,-0.198
same,glycan array binding signal (z-score),[18],0.133
same,glycan array binding signal (z-score),[19],2.33
same,glycan array binding signal (z-score),[20],0.546
same,glycan array binding signal (z-score),[21],-0.708
same,glycan array binding signal (z-score),[22],0.178
same,glycan array binding signal (z-score),[23],0.8
same,glycan array binding signal (z-score),[24],0.085
same,glycan array binding signal (z-score),[25],-0.448
same,glycan array binding signal (z-score),[26],-0.093
same,glycan array binding signal (z-score),[27],-0.695
same,glycan array binding signal (z-score),Gal(b1-4)Gal,0.216
same,glycan array binding signal (z-score),[28],-0.522
same,glycan array binding signal (z-score),[29],-0.611
same,glycan array binding signal (z-score),Gal(b1-4)Glc,-0.359
same,glycan array binding signal (z-score),Gal(b1-4)Glc6S,0.347
same,glycan array binding signal (z-score),Gal(b1-4)GlcNAc,0.319
same,glycan array binding signal (z-score),[30],-0.587
same,glycan array binding signal (z-score),Gal(b1-4)GlcNAc(b1-2)Man,-0.413
same,glycan array binding signal (z-score),[31],-0.673
